# Laboratory results reported in PubChem BioAssay AID1347073 (National Center for Advancing Translational Sciences (NCATS), 2019).
# The whole screen tested about 45,000 compounds, of which about 200 (0.44%) were called active. Not shown: some 7% with an inconclusive outcome. Calls follow the shape of the dose curve; as a rule, active = well fitted activation curve with a large enough effect; inconclusive = small, poorly fitted or top-dose-only effect; inactive = no such curve, though single readings can be large or run the other way. This is one part of the list.
# Assay: qHTS of TDP-43 Inhibitors: NCGC Sytravon Library Screen; also: nearly all actives have a fitted effect of over 55% in size; as to growth rescue (activation): 0% is about no effect
# Details: yeast TDP-43 toxicity rescue, BacTiter-Glo growth, 24 h; series mostly up to 46.1 µM; growth rescue (activation): at the top concentration
# In short: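 TDP-43-expressing yeast, pregrown in raffinose, seeded at OD600 0.02 in galactose medium with compound for 24 hr at 30 deg C. Growth read by BacTiter-Glo luminescence, so rescue of toxicity appears as activation.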
# Potency is read from the fitted curve at half-maximal effect.
SMILES,growth rescue (activation),Potency
COC(=O)CC(c1ccc(OC)c(OC)c1)c1ccc(OC)c(OC)c1,inactive: 11.9%,–
Cc1ccc(C(=O)NC(C)c2ccc(S(N)(=O)=O)cc2)s1 (stereo not given),inactive: 13.3%,–
COc1ccc(Cn2nnc3c(=O)[nH]c(C4CCN(C(=O)c5ccccc5Cl)CC4)nc32)cc1,inactive: -27.2%,–
Oc1ccc(Cl)cc1N=Cc1sc2ccccc2c1Cl,inactive: 0.38%,–
COc1ccc(/C=C2/C(=O)N(Cc3ccccc3)N=C2C)cc1,inactive: -8.48%,–
C=CCn1c(-c2cc(-c3ccc(C)cc3)nc3ccccc23)n[nH]c1=S,–,active: 14.1 µM
N#Cc1cccc(NC(=O)c2cc(C3CCCCN3S(=O)(=O)c3cccc4cccnc34)on2)c1 (stereo not given),inactive: 27%,–
COc1ccc(C2c3c(ccc4ccccc34)Oc3ncn4nc(Cc5ccccc5)nc4c32)cc1OC (stereo not given),inactive: 4.69%,–
CCC(C(=O)Nc1cccc(C(=O)O)c1)c1ccccc1 (stereo not given),inactive: 0.0319%,–
Cc1noc(C)c1COC(=O)[C@@H](NC(=O)c1ccccc1Cl)C(C)C,inactive: 4.73%,–
CCN(CC)c1ccc(/C=C/c2cccc[n+]2C)c(OC)c1,inactive: -12.3%,–
Cc1nc2ccccc2c(=O)n1NC(=O)/C=C/c1ccccc1Cl,inactive: 1.15%,–
CC(=O)Nc1ccc(NC(=O)CSc2ncnc3c2cnn3Cc2ccccc2)cc1,inactive: -3.1%,–
Nc1nnc(SCC(=O)c2ccc3c(c2)NC(=O)CO3)s1,inactive: -0.303%,–
NS(=O)(=O)c1ccc(NC(=S)N2CCN(c3ccccc3)CC2)cc1,inactive: 5.6%,–
COc1cc(S(=O)(=O)N2CCn3cccc3C2C)ccc1NC(C)=O (stereo not given),inactive: 25.9%,–
CSc1ccc(/C=C/C(=O)OCC(=O)N2CCCCCC2)cc1,inactive: 24%,–
Cc1ccc(/C=N/N2CCOCC2)s1,inactive: 14.3%,–
COCCNC(=S)N/N=C(\C)c1ccccc1OC,inactive: -23.1%,–
NC(=O)c1ccc(NC(=O)CSc2nnc(C3CC3)n2C2CC2)cc1,inactive: 18.2%,–
CC(=O)Nc1ccc(-c2ccnc3c2CC(C(=O)Nc2cccc(C(C)=O)c2)O3)cc1 (stereo not given),inactive: 4.88%,–
CC1=C(C(=O)OCC(C)C)C(c2ccc(Br)s2)NC(=O)N1 (stereo not given),inactive: 6.95%,–
O=C(c1cccc(-c2cncc3nccn23)c1)N1CCOCC1,inactive: -7.46%,–
COc1ccc(OC(C)C(=O)N2CCCc3ccccc32)cc1 (stereo not given),inactive: 29.3%,–
CCOC(=O)/C(C#N)=C1\C(=O)N(Cc2ccccc2)c2ccccc21,inactive: -3.65%,–
COCCn1ccc(O)c(Cc2ccccc2)c1=O,inactive: -25.4%,–
Cc1c(CCC(=O)O)c(=O)oc2c(C)c(OCc3cc4c(cc3Cl)OCO4)ccc12,inactive: 15.3%,–

SMILES,growth rescue (activation),Potency
Cn1c(NC(=O)/C=C/c2ccco2)cc(=O)n(C)c1=O,inactive: -19.1%,–
CSCc1ccc(C(=O)Nc2ccc(C(N)=O)cc2)cc1,inactive: 7.72%,–
O=C1c2ccccc2C(=O)N1c1ccccc1S(=O)C(F)(F)F (stereo not given),inactive: 17.3%,–
CC12CN3CCN(CC(C3)/C1=N\NC(=O)Nc1cccc(Cl)c1)C2,inactive: 0.199%,–
Oc1cccc2ccc[n+](CC(O)Cn3c4ccccc4c4ccccc43)c12 (stereo not given),inactive: 6.09%,–
O=C(N/N=C/c1cccc2nccnc12)c1ccncc1,inactive: -1.7%,–
C=CCN1C(=O)/C(=C2/Sc3ccc(OC)cc3N2C)SC1=Nc1ccccc1,inactive: 9.79%,–
COc1ccc2c(C)cc(SCC(=O)Nc3cc(C(N)=O)cc(C(N)=O)c3)nc2c1,inactive: 22.3%,–
CCOC(=O)c1sc2nc(C)n(N)c(=O)c2c1C,inactive: 23.5%,–
CSc1nnc(-c2ccc(S(=O)(=O)N3CCCCC3)cc2)o1,inactive: 9.04%,–
O=C(O)c1cccc(Nc2ccc([N+](=O)[O-])c3nonc23)c1,inactive: 24.4%,–
CCN(CC)CCCNC(=S)N(Cc1cccnc1)Cc1cc2cc(C)cc(C)c2[nH]c1=O,inactive: -0.216%,–
COc1ccc(NC(=O)CSc2nc3nc(-c4cccs4)cc(C(F)(F)F)c3c(=O)[nH]2)c(OC)c1,inactive: 2.46%,–
O=C(Cn1nc(-c2ccccc2)c2ccccc2c1=O)NN1CCOCC1,inactive: 4.21%,–
CCCN(CC(=O)Nc1ccccc1OC)C(=O)c1nc2nc(C)ccn2n1,inactive: 12.1%,–
Cc1nnc(SCC(=O)N(Cc2ccccc2)C(C)C)n1-c1ccccc1,inactive: 4.67%,–
O=C(CN(C(=O)CCC(=O)Nc1nccs1)c1ccccc1F)NCc1ccc2c(c1)OCO2,inactive: 5.95%,–
CN1CCC(OC(=O)c2cc3cc(Br)ccc3oc2=O)CC1,inactive: -11.6%,–
CC1CCN(C(=O)N[C@@H](Cc2ccccc2)C(=O)O)CC1,inactive: -6.35%,–
CCOC(=O)C1(Cc2cccc(OC)c2)CCCN(C(=O)CSC)C1 (stereo not given),inactive: -11.4%,–
N/C(=N\OC(=O)COc1ccc(Cl)cc1)c1ccc(Cl)cc1,inactive: 3.14%,–
COc1ccc(-n2c(CN3CCN(c4ccc(F)cc4)CC3)nc3ccc([N+](=O)[O-])cc3c2=O)c(OC)c1,inactive: 5.5%,–
COc1ccc(-n2c(C)cc(C(=O)CN3CCCCC3)c2C)cc1,inactive: 8.79%,–
N#Cc1ccccc1NC(=O)COC(=O)CCc1ccc(S(=O)(=O)N2CCCCC2)cc1,inactive: 10.4%,–
CCC(C)[C@H](NC(=O)Nc1cccc(Br)c1)C(=O)OC (stereo not given in full),inactive: 18.7%,–
CCn1c(SCC(=O)NCC2CCCO2)nnc1-c1c[nH]c2ccccc12 (stereo not given),inactive: 11.5%,–
O=C1CCC/C(=N\NC(=O)COc2ccc(Cl)cc2)C1,inactive: 11.9%,–

SMILES,growth rescue (activation),Potency
O=C(CN1CCN(S(=O)(=O)c2ccccc2)CC1)NC(=O)NCc1ccco1,inactive: -0.105%,–
CCC(=O)Oc1cccc(C(=O)Nc2cccc(NC(=O)c3ccco3)c2)c1,inactive: -6.39%,–
O=C(O)C1CCN(C(=O)CSc2nc3ccccc3c(=O)n2Cc2ccccc2)CC1,inactive: 16.7%,–
Cc1ccccc1-c1cnn(-c2cccc([N+](=O)[O-])c2)c1N,–,active: 12.6 µM
CCCCOc1ccc(C2OC34CCCCC3C(C#N)(C#N)C2(C#N)C(=N)O4)cc1 (stereo not given),inactive: 26.2%,–
Cc1ccsc1/C=C1\CCC(C2CCCC2)C1=O (stereo not given),inactive: 7.88%,–
CCOc1cc2[nH]c(=O)n(CC3CCC(C(=O)NCCC(C)C)CC3)c(=O)c2cc1OCC (stereo not given),inactive: 8.38%,–
CC(C)NC(=O)c1cc(C2CCCCN2S(=O)(=O)c2cccs2)on1 (stereo not given),inactive: 10.4%,–
O=C(CCN1C(=O)/C(=C/c2ccc(Cl)cc2)SC1=S)Nc1cccnc1,inactive: -7.38%,–
COc1cccc(/C=C/C(=O)c2ccc(NC3=NCCCS3)cc2)c1,inactive: 8.31%,–
Cc1ccc(N(C(=O)CNC(=O)c2ccco2)C(C(=O)NC2CCCCC2)c2cccnc2)cc1 (stereo not given),inactive: -4.84%,–
CCOc1cc(C2C(C#N)=C(N)OC3=C2C(=O)CC(C)(C)C3)cc([N+](=O)[O-])c1O (stereo not given),inactive: -5.77%,–
Cc1ccc(NC(=O)c2cc([N+](=O)[O-])ccc2N2CCOCC2)cc1S(=O)(=O)N(C)C,inactive: -1.37%,–
COc1cc(/C=C/c2ccc3cccc([N+](=O)[O-])c3n2)ccc1OCC#N,inactive: 10.1%,–
O=S(=O)(Nc1ccc(S(=O)(=O)N2CCCC2)cc1)c1ccc(F)cc1F,inactive: -2%,–
CO/N=C/c1c(C(=O)OC)nn(-c2ccccc2)c1Cl,inactive: 26%,–
CCOC(=O)NNc1ccccc1,inactive: 12.8%,–
CCCc1c(C)c2cccc(C)c2[nH]c1=O,inactive: 23.9%,–
CCOc1ccc(CN(C)C(C)C(=O)NCCc2ccc(F)cc2)cc1 (stereo not given),inactive: 1.47%,–
CCN(CC(=O)NCc1ccc(F)cc1)C(=O)Cc1c(F)cccc1Cl,inactive: -3.63%,–
Cc1ccc(NS(=O)(=O)c2cc([N+](=O)[O-])ccc2NNC(=S)Nc2cccc(Cl)c2)c(C)c1,inactive: 24.9%,–
COc1ccc(C(=O)Nc2nc3ccccc3[nH]2)cc1,inactive: -41.5%,–
COc1ccc(S(=O)(=O)N2CCOCC2)cc1NC(=O)c1ccc(-n2nc(C)cc2C)cc1,inactive: -9.1%,–
COc1ccc(-c2[nH]ncc2CN2CCN(c3ccccn3)CC2)c(OC)c1,inactive: 11%,–
COc1ccc(C(=O)C2CCCN(C/C=C/c3ccccc3OC)C2)c(OC)c1 (stereo not given),inactive: -7.58%,–
Cc1ccc(N(Cc2cc3ccccc3[nH]c2=O)S(C)(=O)=O)cc1,inactive: -10.1%,–
CC(C)Oc1cc(N)c(Cl)cc1Cl,inactive: 13.1%,–

SMILES,growth rescue (activation),Potency
Cc1ccc2nc3c(c(Nc4ccc5c(c4)OCCO5)c2c1)CCC3,inactive: -13.8%,–
CS(=O)(=O)N(CC(=O)N/N=C/c1cccc2c1OCCO2)c1ccccc1Br,inactive: 11%,–
O=C(Nc1cccc(-c2nc3ncccc3o2)c1)c1ccc2c(c1)OCO2,inactive: -0.463%,–
COc1ccc([N+](=O)[O-])cc1NC(=O)CCN1CCN(CCO)CC1,inactive: 20.7%,–
COc1ccc(-c2cn(-c3ccc(OC)cc3)c3[n+]2-c2ccccc2CC3)cc1,inactive: 2.16%,–
CC1(C(=O)NS(=O)(=O)c2ccccc2)CCN1C(=O)c1ccccc1 (stereo not given),inactive: -4.2%,–
Cn1c(=O)cc(C(=O)N/N=C/c2ccc(Cl)cc2)[nH]c1=O,inactive: -10.4%,–
CN1CCN(C(=O)c2cc3c(C(F)(F)F)nn(C)c3s2)CC1,inactive: 7.58%,–
CN(C(=O)CSc1nnc(-c2cccs2)n1C1CC1)C1CCS(=O)(=O)C1 (stereo not given),inactive: 10.6%,–
COC(=O)c1c(N2C(=O)CC(Sc3ncccc3C(=O)O)C2=O)sc(C)c1C (stereo not given),inactive: -17.2%,–
OCCC1CN(Cc2cccc3nonc23)CCN1Cc1ccsc1 (stereo not given),inactive: 27.7%,–
Cn1c(=O)c2cc(NC(=S)NCc3ccccc3F)ccc2n1Cc1ccc(F)cc1,inactive: 0.523%,–
NC(=O)c1nsc(C(=O)N(c2ccccc2)C(C(=O)NC2CCCCC2)c2ccc(O)cc2)c1N (stereo not given),inactive: -0.0568%,–
Cc1ccc(-c2cnc(C(O)c3cc(C)cc(C)c3)[nH]2)cc1 (stereo not given),inactive: 14.3%,–
NC(=O)NC(CC(=O)NCc1ccc2c(c1)OCO2)c1ccccc1Cl (stereo not given),inactive: 5.9%,–
COc1ccccc1Nc1cc(C(=O)NCc2cccnc2)c2ccccc2n1,inactive: 5.63%,–
COc1ccc(C(=O)Nc2ccc(N3CCN(Cc4ccccc4)CC3)cc2)cc1,inactive: -2.98%,–
CCOc1ccc(C(=O)NCC(=O)N2CCN(c3ccccc3O)CC2)cc1,inactive: -2.5%,–
CCN1CCN(CCCNC(=O)CNC(=O)c2nn(-c3ccc(OC)cc3OC)c(=O)c3ccccc23)CC1,inactive: 9.38%,–
Cc1ccc(-c2cc(C(=O)Nc3ccc(S(=O)(=O)Nc4ncccn4)cc3)c3ccccc3n2)cc1,inactive: 17.1%,–
Cn1nc(C(=O)NC2CCCc3ccccc32)ccc1=O (stereo not given),inactive: 1.39%,–
O=C(COC(=O)c1cccc(S(=O)(=O)NCc2ccccc2)c1)NCC1CCCO1 (stereo not given),inactive: 5%,–
Cc1ccc(N(C(=O)CNC(=O)c2ccco2)C(C(=O)NC2CCCCC2)c2ccncc2)cc1F (stereo not given),inactive: 5.32%,–
O=C(NCC1(c2ccccc2)CCCC1)c1ccc(Br)o1,inactive: -8.54%,–
